Ten variants from the supplement of paper PMC12217912 can be followed below.

The list shows a part of the results. The full chains were built here from the parent and the listed change. Values near 0.05 are background.

B1: TEV protease; numbered along this chain (parent)
chain: MGESLFKGPRDYNPISSSICHLTNESDGHTTSLYGIGFGPFIITNKHLFRRNNGTLVVQSLHGVFKVKDTTTLQQHLVDGRDMIIIRMPKDFPPFPQKLKFREPQREERICLVTTNFQTKSMSSMVSDTSCTFPSGDGIFWKHWIQTKDGQCGSPLVSTRDGFIVGIHSASNFTNTNNYFTSVPKNFMELLTNQEAQQWVSGWRLNADSVLWGGHKVFMVKPEEPFQPVKEATQL

Variants of B1 are the subject of the assay. The assay is described as follows: raw area under fraction-flipped curve 0-4 h after induction (AUC4h, not background-subtracted), DNA-recorder readout of cleavage of the substrate (dimensionless); higher = more cleavage of the substrate by the protease variant. The note with it: temperature: 34 °C; time window: 0-4 h after rhamnose induction. The method, then:
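In vivo DNA recorder in E. coli TOP10(DE3) ΔrhaA at 34 °C. Each TEVp single-site mutant (parent TEVp 0) is paired with a single-site variant of the 7-mer TEVs (canonical ENLYFQ|S). The substrate sits between flexible linkers in a Bxb1-sfGFP-TEVs-SsrA fusion, so cleavage stabilises Bxb1 and speeds flipping of a recombination array, read by NGS. The value is the raw area under the fraction-flipped curve over 0-4 h after rhamnose induction (AUC4h), with ≥20 reads per time point. It is not background-subtracted; inactive controls average about 0.047.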
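Note: Bxb1 expression induced with 0.2% (w/v) L-rhamnose at OD600 near 0.5, cultures sampled hourly, flipped fraction per protease–substrate barcode pair counted by paired-end Illumina sequencing.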

In the case of MGESLFKGSRDYNPISSSICHLTNESDGHTTSLYGIGFGPFIITNKHLFRRNNGTLVVQSLHGVFKVKDTTTLQQHLVDGRDMIIIRMPKDFPPFPQKLKFREPQREERICLVTTNFQTKSMSSMVSDTSCTFPSGDGIFWKHWIQTKDGQCGSPLVSTRDGFIVGIHSASNFTNTNNYFTSVPKNFMELLTNQEAQQWVSGWRLNADSVLWGGHKVFMVKPEEPFQPVKEATQL [P9S], the “area with substrate EALYFQS” value turned out to be 0.137, the “area with substrate EELYFQS” value turned out to be 0.113, the “area with substrate EHLYFQS” value stood at 0.0934 and the “area with substrate EPLYFQS” value turned out to be 0.121. Also, the “area with substrate EQLYFQS” value was found to be 0.0727, the “area with substrate ESLYFQS” value amounted to 0.0871 and the “area with substrate EWLYFQS” value was found to be 0.0489.

Regarding MGESLFKGERDYNPISSSICHLTNESDGHTTSLYGIGFGPFIITNKHLFRRNNGTLVVQSLHGVFKVKDTTTLQQHLVDGRDMIIIRMPKDFPPFPQKLKFREPQREERICLVTTNFQTKSMSSMVSDTSCTFPSGDGIFWKHWIQTKDGQCGSPLVSTRDGFIVGIHSASNFTNTNNYFTSVPKNFMELLTNQEAQQWVSGWRLNADSVLWGGHKVFMVKPEEPFQPVKEATQL [P9E], the “area with substrate EALYFQS” value was 0.0664, the “area with substrate ECLYFQS” value was found to be 0.0792, the “area with substrate EDLYFQS” value worked out at 0.107 and the “area with substrate EGLYFQS” value was found to be 0.0946. The “area with substrate EILYFQS” value is 0.0589, the “area with substrate EKLYFQS” value was found to be 0.0775, the “area with substrate EPLYFQS” value was found to be 0.0964 and the “area with substrate EQLYFQS” value was found to be 0.0768. For the same variant, the “area with substrate ERLYFQS” value came out at 0.101, the “area with substrate ESLYFQS” value worked out at 0.0889, the “area with substrate EVLYFQS” value came to 0.0735 and the “area with substrate EWLYFQS” value worked out at 0.0655.

Consider MGESSFKGPRDYNPISSSICHLTNESDGHTTSLYGIGFGPFIITNKHLFRRNNGTLVVQSLHGVFKVKDTTTLQQHLVDGRDMIIIRMPKDFPPFPQKLKFREPQREERICLVTTNFQTKSMSSMVSDTSCTFPSGDGIFWKHWIQTKDGQCGSPLVSTRDGFIVGIHSASNFTNTNNYFTSVPKNFMELLTNQEAQQWVSGWRLNADSVLWGGHKVFMVKPEEPFQPVKEATQL [L5S], for which the “area with substrate EALYFQS” value was 0.11, the “area with substrate ECLYFQS” value stood at 0.151, the “area with substrate EELYFQS” value amounted to 0.135 and the “area with substrate EGLYFQS” value was 0.1. Besides, the “area with substrate EILYFQS” value came to 0.113, the “area with substrate EMLYFQS” value turned out to be 0.137, the “area with substrate EPLYFQS” value stood at 0.122 and the “area with substrate ERLYFQS” value worked out at 0.113. Moreover, the “area with substrate ESLYFQS” value was found to be 0.113 and the “area with substrate EVLYFQS” value is 0.108.

As for MGESGFKGPRDYNPISSSICHLTNESDGHTTSLYGIGFGPFIITNKHLFRRNNGTLVVQSLHGVFKVKDTTTLQQHLVDGRDMIIIRMPKDFPPFPQKLKFREPQREERICLVTTNFQTKSMSSMVSDTSCTFPSGDGIFWKHWIQTKDGQCGSPLVSTRDGFIVGIHSASNFTNTNNYFTSVPKNFMELLTNQEAQQWVSGWRLNADSVLWGGHKVFMVKPEEPFQPVKEATQL [L5G], the “area with substrate EALYFQS” value was 0.0956, the “area with substrate EDLYFQS” value came to 0.14, the “area with substrate EELYFQS” value was determined as 0.105 and the “area with substrate EFLYFQS” value was 0.11. The “area with substrate EGLYFQS” value was determined as 0.0857, the “area with substrate EHLYFQS” value stood at 0.0958, the “area with substrate EILYFQS” value was 0.11 and the “area with substrate EKLYFQS” value amounted to 0.133. For the same variant, the “area with substrate ELLYFQS” value is 0.0933, the “area with substrate EMLYFQS” value came out at 0.127, the “area with substrate EQLYFQS” value worked out at 0.134 and the “area with substrate ESLYFQS” value turned out to be 0.0901. Also, the “area with substrate EVLYFQS” value was 0.101.

For MGESLFKHPRDYNPISSSICHLTNESDGHTTSLYGIGFGPFIITNKHLFRRNNGTLVVQSLHGVFKVKDTTTLQQHLVDGRDMIIIRMPKDFPPFPQKLKFREPQREERICLVTTNFQTKSMSSMVSDTSCTFPSGDGIFWKHWIQTKDGQCGSPLVSTRDGFIVGIHSASNFTNTNNYFTSVPKNFMELLTNQEAQQWVSGWRLNADSVLWGGHKVFMVKPEEPFQPVKEATQL [G8H], the “area with substrate EALYFQS” value was 0.0937, the “area with substrate ECLYFQS” value came to 0.0727, the “area with substrate EKLYFQS” value came out at 0.112 and the “area with substrate ELLYFQS” value was 0.0776. The “area with substrate EVLYFQS” value was found to be 0.0649.

For the variant MVESLFKGPRDYNPISSSICHLTNESDGHTTSLYGIGFGPFIITNKHLFRRNNGTLVVQSLHGVFKVKDTTTLQQHLVDGRDMIIIRMPKDFPPFPQKLKFREPQREERICLVTTNFQTKSMSSMVSDTSCTFPSGDGIFWKHWIQTKDGQCGSPLVSTRDGFIVGIHSASNFTNTNNYFTSVPKNFMELLTNQEAQQWVSGWRLNADSVLWGGHKVFMVKPEEPFQPVKEATQL [G2V], the “area with substrate EALYFQS” value was determined as 0.175, the “area with substrate ECLYFQS” value was determined as 0.106, the “area with substrate EDLYFQS” value was 0.169 and the “area with substrate EELYFQS” value was 0.187. For the same variant, the “area with substrate EFLYFQS” value amounted to 0.147, the “area with substrate EGLYFQS” value was determined as 0.135, the “area with substrate EHLYFQS” value came out at 0.133 and the “area with substrate EKLYFQS” value amounted to 0.141. Moreover, the “area with substrate ELLYFQS” value was 0.109, the “area with substrate EMLYFQS” value was 0.158, the “area with substrate EPLYFQS” value amounted to 0.163 and the “area with substrate EQLYFQS” value worked out at 0.168. Further, the “area with substrate ESLYFQS” value came to 0.155, the “area with substrate EVLYFQS” value is 0.145 and the “area with substrate EYLYFQS” value came to 0.108.

For MGESLFKGPADYNPISSSICHLTNESDGHTTSLYGIGFGPFIITNKHLFRRNNGTLVVQSLHGVFKVKDTTTLQQHLVDGRDMIIIRMPKDFPPFPQKLKFREPQREERICLVTTNFQTKSMSSMVSDTSCTFPSGDGIFWKHWIQTKDGQCGSPLVSTRDGFIVGIHSASNFTNTNNYFTSVPKNFMELLTNQEAQQWVSGWRLNADSVLWGGHKVFMVKPEEPFQPVKEATQL [R10A], the “area with substrate EALYFQS” value worked out at 0.128, the “area with substrate EFLYFQS” value was 0.0848, the “area with substrate EGLYFQS” value was determined as 0.0764 and the “area with substrate EILYFQS” value amounted to 0.0945. Moreover, the “area with substrate EKLYFQS” value turned out to be 0.0958, the “area with substrate EMLYFQS” value stood at 0.0911, the “area with substrate ERLYFQS” value was 0.0925 and the “area with substrate ESLYFQS” value was determined as 0.105. In addition, the “area with substrate ETLYFQS” value was determined as 0.0829, the “area with substrate EVLYFQS” value is 0.13, the “area with substrate EWLYFQS” value is 0.102 and the “area with substrate EYLYFQS” value is 0.0598.

For the variant MGESLFMGPRDYNPISSSICHLTNESDGHTTSLYGIGFGPFIITNKHLFRRNNGTLVVQSLHGVFKVKDTTTLQQHLVDGRDMIIIRMPKDFPPFPQKLKFREPQREERICLVTTNFQTKSMSSMVSDTSCTFPSGDGIFWKHWIQTKDGQCGSPLVSTRDGFIVGIHSASNFTNTNNYFTSVPKNFMELLTNQEAQQWVSGWRLNADSVLWGGHKVFMVKPEEPFQPVKEATQL [K7M], the “area with substrate EALYFQS” value was 0.14, the “area with substrate ECLYFQS” value was 0.127, the “area with substrate EDLYFQS” value was 0.129 and the “area with substrate EFLYFQS” value turned out to be 0.0918. The “area with substrate ELLYFQS” value turned out to be 0.0988, the “area with substrate EMLYFQS” value came out at 0.112, the “area with substrate EQLYFQS” value was 0.141 and the “area with substrate EVLYFQS” value came to 0.0979.

In the case of MGESLFCGPRDYNPISSSICHLTNESDGHTTSLYGIGFGPFIITNKHLFRRNNGTLVVQSLHGVFKVKDTTTLQQHLVDGRDMIIIRMPKDFPPFPQKLKFREPQREERICLVTTNFQTKSMSSMVSDTSCTFPSGDGIFWKHWIQTKDGQCGSPLVSTRDGFIVGIHSASNFTNTNNYFTSVPKNFMELLTNQEAQQWVSGWRLNADSVLWGGHKVFMVKPEEPFQPVKEATQL [K7C], the “area with substrate EALYFQS” value is 0.12, the “area with substrate ECLYFQS” value came out at 0.0959, the “area with substrate EDLYFQS” value stood at 0.15 and the “area with substrate EKLYFQS” value was 0.0804. Further, the “area with substrate ELLYFQS” value turned out to be 0.094, the “area with substrate EMLYFQS” value was found to be 0.131, the “area with substrate EPLYFQS” value is 0.13 and the “area with substrate ESLYFQS” value amounted to 0.0895. Further, the “area with substrate ETLYFQS” value was 0.129 and the “area with substrate EVLYFQS” value is 0.0829.

With MGESLFKGPRDYNPISSSICHLTNESHGHTTSLYGIGFGPFIITNKHLFRRNNGTLVVQSLHGVFKVKDTTTLQQHLVDGRDMIIIRMPKDFPPFPQKLKFREPQREERICLVTTNFQTKSMSSMVSDTSCTFPSGDGIFWKHWIQTKDGQCGSPLVSTRDGFIVGIHSASNFTNTNNYFTSVPKNFMELLTNQEAQQWVSGWRLNADSVLWGGHKVFMVKPEEPFQPVKEATQL [D27H], the “area with substrate EALYFQS” value came out at 0.123, the “area with substrate ECLYFQS” value came to 0.0869, the “area with substrate EELYFQS” value was found to be 0.116 and the “area with substrate EGLYFQS” value was 0.102. The “area with substrate EMLYFQS” value was determined as 0.114, the “area with substrate ERLYFQS” value was 0.111, the “area with substrate ESLYFQS” value is 0.0416 and the “area with substrate ETLYFQS” value was determined as 0.0931.
